Experimental data from PubChem BioAssay AID504339 (National Center for Advancing Translational Sciences (NCATS), 2011).
The whole screen tested about 390,000 compounds, of which about 17,000 (4.4%) were called active. Inconclusive means that the source gave no clear call. Such entries were picked first, then a sample of the others. Calls follow the shape of the dose curve; as a rule, active = well fitted inhibition curve with a large enough effect; inconclusive = small, poorly fitted or top-dose-only effect; inactive = no such curve, though single readings can be large or run the other way. Where the call is inconclusive, the potency comes from a doubtful curve fit.

Biological target: Lysine-specific demethylase 4A (Homo sapiens) (UniProt O75164)
UniProt O75164, sequence (O75164 whole entry, looked up, the tested form may be a part): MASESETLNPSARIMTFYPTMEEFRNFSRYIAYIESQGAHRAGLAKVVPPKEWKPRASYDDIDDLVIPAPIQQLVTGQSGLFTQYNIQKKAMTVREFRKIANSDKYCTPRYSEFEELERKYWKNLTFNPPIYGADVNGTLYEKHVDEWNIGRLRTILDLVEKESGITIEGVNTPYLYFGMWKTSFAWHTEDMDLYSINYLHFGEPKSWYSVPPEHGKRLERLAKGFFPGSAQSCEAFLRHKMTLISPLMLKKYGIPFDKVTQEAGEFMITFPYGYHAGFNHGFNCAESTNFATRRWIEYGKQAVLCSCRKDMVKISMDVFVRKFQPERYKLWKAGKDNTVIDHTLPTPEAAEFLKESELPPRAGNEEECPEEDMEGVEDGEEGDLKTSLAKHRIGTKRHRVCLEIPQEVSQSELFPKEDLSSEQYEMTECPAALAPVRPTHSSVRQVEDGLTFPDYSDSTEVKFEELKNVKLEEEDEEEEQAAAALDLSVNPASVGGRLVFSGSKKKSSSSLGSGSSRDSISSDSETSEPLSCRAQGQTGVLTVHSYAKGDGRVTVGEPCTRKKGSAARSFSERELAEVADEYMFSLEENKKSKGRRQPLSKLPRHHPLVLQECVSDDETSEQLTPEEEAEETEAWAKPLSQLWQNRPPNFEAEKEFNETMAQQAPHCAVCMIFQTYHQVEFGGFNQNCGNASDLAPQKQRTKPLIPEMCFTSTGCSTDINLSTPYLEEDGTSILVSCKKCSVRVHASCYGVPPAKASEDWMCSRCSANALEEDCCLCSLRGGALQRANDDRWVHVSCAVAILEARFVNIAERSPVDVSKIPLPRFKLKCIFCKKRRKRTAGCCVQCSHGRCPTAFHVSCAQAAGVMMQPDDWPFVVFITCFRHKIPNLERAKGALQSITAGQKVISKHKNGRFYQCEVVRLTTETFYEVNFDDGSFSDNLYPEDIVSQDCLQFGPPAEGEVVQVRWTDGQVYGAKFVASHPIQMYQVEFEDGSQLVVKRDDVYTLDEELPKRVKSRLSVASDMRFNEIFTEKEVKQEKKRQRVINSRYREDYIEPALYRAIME
Experiment: qHTS Assay for Inhibitors of JMJD2A-Tudor Domain; also: nearly all actives have a fitted effect of over 50% in size
Details: AlphaScreen JMJD2A-Tudor / H3K4me3 peptide binding; activity change, negative = inhibition: at 114 µM (top of the series)
% is scaled to controls: 0 for no effect and ±100 for the full control effect; potency is read from the fitted curve at half-maximal effect; tags tell the direction and shape of the fitted curve.

Potency, active:
Cc1cc(OCC[N+]2(C)CCCCC2)nc2ccccc12 39.8 µM
CN(CCNC(=O)c1ccc(/C=N/O)nc1)Cc1ccccc1 8.91 µM
COc1cccc(S(=O)(=O)Nc2ccc3sc(C)nc3c2)c1 79.4 µM
CC(C)(C)c1c(Cl)c(O)c(-c2ccccc2)c(=O)n1-c1ccccc1 50.1 µM
O=C(N/N=C/c1cc(Br)cc(Br)c1O)c1ccncc1 12.6 µM
Cc1cc(NC(=O)CSc2nnc(-c3ccncc3)n2N)ccc1Br 79.4 µM
CCOc1ccc(-c2nc(S(=O)(=O)c3ccccc3)c(N3CCC(C(N)=O)CC3)o2)cc1 70.8 µM
Cc1nccn1CC(=O)c1ccc(O)c(O)c1 20 µM
COc1cc(C(=O)O)nc2ccccc12 12.6 µM
CN(C)c1ccc(/C=[N+](\[O-])C(C)(C)/C=N/O)cc1 50.1 µM
COc1ccc(-c2sc3ccccc3c2-c2ccc(OCCN3CCCCC3)cc2)cc1 44.7 µM
O=C(/C=C/Sc1ncn[nH]1)c1ccc(Cl)cc1 31.6 µM

Potency, inconclusive:
CC(C)[C@H]1COCCS(=O)(=O)N1Cc1ccccc1-c1ccccc1 50.1 µM [inhibitor, partial curve]
CC(C)Cc1nnc(NC(=O)Cc2cccs2)s1 56.2 µM [inhibitor, partial curve]
CN(C)CCCN(C(=O)COc1ccc(Cl)cc1)c1nc2cc3c(cc2s1)OCO3 44.7 µM [inhibitor, partial curve]
CCC1(C(=O)NC(=Nc2ccccc2)Nc2ccccc2)CCOC1=O (stereo not given) 31.6 µM [inhibitor, partial curve]
Cc1cc(C(=O)COC(=O)c2ccc(N)c([N+](=O)[O-])c2)c(C)n1Cc1ccc2c(c1)OCO2 8.91 µM [inhibitor, full curve, poor fit]
COc1ccccc1NC(=O)CSc1nn2c(=O)c(C)nnc2s1 100 µM [inhibitor, single point]
Cc1ccc(N(C)S(=O)(=O)c2c(C)noc2/C=C/N(C)C)cc1 56.2 µM [inhibitor, partial curve, poor fit]
O=S(=O)(Cc1ccccc1)N1CCN(Cc2ccc3c(c2)OCO3)CC1 89.1 µM [inhibitor, single point]
O=[N+]([O-])c1cccc(/C([O-])=C(/C(=S)Nc2ccccc2F)[n+]2ccccc2)c1 63.1 µM [inhibitor, partial curve]
S=C(NCc1ccc2c(c1)OCO2)Nc1ccc2nsnc2c1 39.8 µM [inhibitor, single point]
CN(C)c1ccc(C(=O)N/N=C/c2cc(Br)cc(Br)c2O)cc1 56.2 µM [inhibitor, partial curve]
O=C(NCc1ccc(F)cc1)c1ccc2c(c1)S(=O)(=O)c1ccccc1C2=O 50.1 µM [inhibitor, partial curve]
O=C(N=Nc1c(O)[nH]c2ccc([N+](=O)[O-])cc12)c1ccccc1Cl 39.8 µM [inhibitor, partial curve]
OCCN(CCO)c1ccc(C(c2ccc(Cl)cc2)c2ccc(N(CCO)CCO)cc2Cl)c(Cl)c1 39.8 µM [inhibitor, partial curve]
O=C(Cn1c(=O)cnc2ccccc21)Nc1cccc(S(=O)(=O)N2CCCCC2)c1 56.2 µM [inhibitor, partial curve]
CN1CCC(=O)N(CCOc2ccccc2)CC1 39.8 µM [inhibitor, partial curve]
O=c1cc(-c2nn[nH]n2)[nH]c(=O)[nH]1 35.5 µM [inhibitor, full curve]
CCC(C)(C)C(=O)O[C@H]1C[C@@H](C)C=C2C=C[C@H](C)[C@H](CC[C@@H]3C[C@@H](O)CC(=O)O3)[C@H]21 25.1 µM [inhibitor, full curve]
COc1ccc(C2c3ccc4ccccc4c3Oc3ncn(CCN4CCOCC4)c(=N)c32)cc1 (stereo not given) 56.2 µM [inhibitor, partial curve]
COc1ccc(C2c3ccc4ccccc4c3Oc3ncn(CCCO)c(=N)c32)cc1OC (stereo not given) 56.2 µM [inhibitor, partial curve, poor fit]
COc1ccc(N2CCN(C(=O)c3ccc4c(c3)N(Cc3cc(C)ccc3C)C(=O)c3ccccc3S4=O)CC2)cc1 (stereo not given) 10 µM [inhibitor, full curve]
Cc1cccn2c(=O)c(/C=C(\C#N)C(N)=O)c(N3CCN(c4ccccc4)CC3)nc12 89.1 µM [inhibitor, partial curve]
COc1cc(CNCCc2ccccc2)cc(Br)c1OCC(=O)Nc1ccccc1C 50.1 µM [inhibitor, partial curve, poor fit]
O=[N+]([O-])/C=C/c1ccc2c(ccn2Cc2ccccc2)c1 12.6 µM [inhibitor, full curve, poor fit]
Cc1ccc(S(=O)(=O)c2nc(-c3ccco3)oc2N2CCC(C)CC2)cc1 35.5 µM [inhibitor, full curve, poor fit]
CCCCC(=O)Nc1ccccc1N1CCN(c2ccc(F)cc2)CC1 20 µM [inhibitor, partial curve]
Cn1c(Cc2csc(N)n2)nnc1SC/C=C/c1ccccc1 79.4 µM [inhibitor, partial curve]
Cc1ccc(S(=O)(=O)N(C)C)cc1NC(=O)COC(=O)Cc1ccc(Br)cc1 20 µM [inhibitor, full curve]
COc1ccc(OC)c(C2=CC(=O)C[C@H](c3ccc4c(c3)OCO4)C2)c1 25.1 µM [inhibitor, full curve]
Cc1nc2c(ncn2-c2ccccc2)c(=O)n1NC(=O)CN1CCN(C)CC1 12.6 µM [inhibitor, partial curve]
COc1ccc(Cc2nnc(C(=O)NCCCN3CCN(c4ccccc4F)CC3)o2)cc1OC 63.1 µM [inhibitor, partial curve]
Nc1ccc(-c2cnc[nH]2)cc1[N+](=O)[O-] 56.2 µM [inhibitor, partial curve]
CC(C)N(Cc1nccn1C)C(=O)c1ccc2oc(CCCc3ccccc3)nc2c1 79.4 µM [inhibitor, partial curve]
CC(C)C(NC(=O)c1ccc(C(C)(C)C)cc1)C(=O)Nc1ccc(N2CCOCC2)cc1 (stereo not given) 35.5 µM [inhibitor, partial curve]
COc1ccc2c(c1)-c1nc(/N=C/c3ccc(O)c(OC)c3)sc1CC2 70.8 µM [inhibitor, single point]
COc1ccc(C2c3c(-c4ccccc4O)n[nH]c3C(=O)N2CCc2ccccc2)cc1 (stereo not given) 8.91 µM [inhibitor, full curve, poor fit]
O=S(=O)(NCC1NCCc2ccccc21)c1ccccc1 (stereo not given) 100 µM [inhibitor, single point]
C[C@H]1CN=C(Nc2ccccc2)N1CCCC1CCCC1 31.6 µM [inhibitor, full curve]
C=CCn1c(COc2cccc(C)c2C)nnc1SCC(=O)N1CCN(c2ccccc2)CC1 56.2 µM [inhibitor, partial curve]
O=C(O)CS(=O)(=O)CC(=O)O 39.8 µM [inhibitor, partial curve]
CCC/C=C(\CCC)C(NS(=O)(=O)c1cccc2cccnc12)c1ccc(C(=O)OC)cc1 (stereo not given) 89.1 µM [inhibitor, single point]
Cc1ccc(S(=O)(=O)NNC(=S)NC(=O)c2ccc([N+](=O)[O-])cc2)cc1 1.78 µM [inhibitor, full curve, poor fit]

Activity change, negative = inhibition, inactive:
CC(C)(C)CC(C)(C)NC(=S)NC1CCN(Cc2ccccc2)CC1 -34.9%
O=C(CNC(=O)c1ccccc1Cl)OCc1cc(=O)n2nc(C3CC3)sc2n1 -1.33%
Cc1c(-c2ccc(Cl)cc2)c(=O)oc2c(CN3CCN(C)CC3)c(O)ccc12 0%
Cc1ccc(-c2nnc(-c3ccccc3)c(N3CCOCC3)n2)cc1 -15.7%
COC(=O)C1(CC2CC(c3ccccc3)=NO2)CCN(C(=O)OC(C)(C)C)CC1 (stereo not given) -19%
C=CCn1c(N)c(C(=O)Nc2ccc(C)cc2)sc1=S -3.52%
CN(CC(=O)Nc1ccccc1Cl)C(=O)CN1C(=O)NC(c2ccccc2)(c2ccccc2)C1=O -12.5%
O=C(NCC(c1ccco1)N1CCN(c2ccc(F)cc2)CC1)C(=O)NC1CCCCC1 (stereo not given) 2.07%
Cc1ccc(Oc2nc3c(c(=O)n(Cc4ccccc4Cl)c(=O)n3C)n2C)cc1C -9.69%
COc1ccccc1-n1c(SCC(=O)O)nc2c(sc(=S)n2-c2ccc(C)c(C)c2)c1=O -21%
Cc1ccc2c(c1)NC(=O)C(CC(=O)NCc1cccnc1)O2 (stereo not given) -7.75%
CC(=O)Nc1cccc(NC(=S)Nc2cccc(Cl)c2Cl)c1 -17.7%
COc1cccc(OC)c1C(=O)OCc1c(-c2ccccc2)ncc2ccccc12 -29.6%
CCCCN(CC)CCNc1ncnc2onc(-c3ccc(Cl)cc3)c12 -11.9%
CCOc1ccc(S(=O)(=O)N2CCC(C(=O)NC3CC3)CC2)cc1Cl -10.4%
CN(C)C(CNc1ccc(S(C)(=O)=O)cc1[N+](=O)[O-])c1ccccc1 (stereo not given) -26%
